Test results taken from the supplement of paper PMC7826260.
The other results are listed elsewhere or left out. Cleavage of a single-stranded DNA pool by Rep nickase domains was read by sequencing (3 µM enzyme, 1 h, 37 °C); shown is the middle of each 90-letter strand. Uncut reads are compared with the no-enzyme pool on a log2 scale; the lower, the more was cut; hits are not called. Because reads are shares of a total, they shift together; values above 0 arise when much of the pool is cut.

How the values were obtained:
Assay in all cases: uncleaved DNA left, log2 of reads against the no-enzyme library (log2 ratio); higher = less cleavage (more negative = more Rep cleavage of the k-mer); sequences stand for … in CTCGTCCG…ACCGGAGA
[1] = test system: T1, Rep nickase domain of Muscovy duck circovirus
T1 sequence (residues 1-111 of Rep, tag left off): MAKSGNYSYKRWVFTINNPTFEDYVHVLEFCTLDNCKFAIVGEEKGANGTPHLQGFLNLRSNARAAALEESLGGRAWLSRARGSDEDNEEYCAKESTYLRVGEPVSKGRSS
Experimental: (§1)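 A pool of 90-nt single-stranded DNAs with seven random bases just before the constant AC of the nick site (name = the seven bases) was cut by 3 µM recombinant His6-SUMO-tagged Rep nickase domain (300 nM DNA, 50 mM HEPES pH 8.0, 50 mM NaCl, 1 mM MnCl2, 1 h, 37 °C, three replicates). Uncut DNA was amplified and sequenced.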

[2] = test system: T2, Rep nickase domain of banana bunchy top virus
T2 sequence (residues 1-94 of Rep, tag left off): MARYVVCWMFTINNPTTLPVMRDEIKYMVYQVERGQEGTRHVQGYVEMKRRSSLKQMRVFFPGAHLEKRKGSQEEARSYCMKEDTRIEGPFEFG
Experimental: as §1

[3] = test system: T3, Rep nickase domain of cabbage leaf curl virus
T3 sequence (residues 1-116 of Rep, tag left off): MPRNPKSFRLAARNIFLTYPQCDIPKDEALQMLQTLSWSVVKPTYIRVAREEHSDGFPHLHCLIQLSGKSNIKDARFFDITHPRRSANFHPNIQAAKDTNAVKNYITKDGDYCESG
Experimental: as §1

[4] = test system: T4, Rep nickase domain of chickpea chlorotic dwarf virus
T4 sequence (residues 1-124 of Rep, tag left off): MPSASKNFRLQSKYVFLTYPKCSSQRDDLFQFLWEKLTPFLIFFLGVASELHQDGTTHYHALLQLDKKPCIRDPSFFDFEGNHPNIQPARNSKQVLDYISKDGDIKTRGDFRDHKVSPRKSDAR
Experimental: as §1

[5] = test system: T5, Rep nickase domain of faba bean necrotic yellows virus
T5 sequence (residues 1-98 of Rep, tag left off): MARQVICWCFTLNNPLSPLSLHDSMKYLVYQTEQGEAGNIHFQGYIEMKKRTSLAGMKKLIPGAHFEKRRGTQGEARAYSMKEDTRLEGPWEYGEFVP
Experimental: as §1

[6] = test system: T6, Rep nickase domain of maize striate mosaic virus
T6 sequence (residues 1-117 of Rep, tag left off): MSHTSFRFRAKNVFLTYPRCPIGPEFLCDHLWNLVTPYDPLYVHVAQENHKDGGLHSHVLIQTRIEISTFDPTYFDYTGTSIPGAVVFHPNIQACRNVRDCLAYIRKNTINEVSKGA
Experimental: as §1

[7] = test system: T7, Rep nickase domain of porcine circovirus 2
T7 sequence (residues 2-116 of Rep, tag left off): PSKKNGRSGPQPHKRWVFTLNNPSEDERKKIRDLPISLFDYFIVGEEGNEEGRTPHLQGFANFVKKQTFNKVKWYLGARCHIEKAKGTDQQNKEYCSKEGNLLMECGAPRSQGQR
Experimental: as §1

[8] = test system: T8, Rep nickase domain of tomato golden mosaic virus
T8 sequence (residues 1-124 of Rep, tag left off): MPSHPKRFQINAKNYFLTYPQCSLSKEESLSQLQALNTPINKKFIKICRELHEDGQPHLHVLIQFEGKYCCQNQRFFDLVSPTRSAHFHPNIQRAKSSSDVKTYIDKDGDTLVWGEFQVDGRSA
Experimental: as §1

[9] = test system: T9, Rep nickase domain of tomato yellow leaf curl virus
T9 sequence (residues 1-136 of Rep, tag left off): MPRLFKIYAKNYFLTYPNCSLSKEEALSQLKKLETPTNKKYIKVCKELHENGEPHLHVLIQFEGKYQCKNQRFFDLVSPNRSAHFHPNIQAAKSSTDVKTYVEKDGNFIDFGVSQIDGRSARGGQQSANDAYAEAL
Experimental: as §1

[10] = test system: T10, Rep nickase domain of wheat dwarf virus
T10 sequence (residues 1-137 of Rep, tag left off): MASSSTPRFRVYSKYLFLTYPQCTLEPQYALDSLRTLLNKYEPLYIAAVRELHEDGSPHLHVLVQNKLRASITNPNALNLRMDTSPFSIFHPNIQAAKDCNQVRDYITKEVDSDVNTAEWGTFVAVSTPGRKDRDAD
Experimental: as §1

| Sequence | uncleaved DNA left (log2) [1] | uncleaved DNA left (log2) [2] | uncleaved DNA left (log2) [3] | uncleaved DNA left (log2) [4] | uncleaved DNA left (log2) [5] | uncleaved DNA left (log2) [6] | uncleaved DNA left (log2) [7] | uncleaved DNA left (log2) [8] | uncleaved DNA left (log2) [9] | uncleaved DNA left (log2) [10] |
| --- | --- | --- | --- | --- | --- | --- | --- | --- | --- | --- |
| TAGGCTT | 0.0637 | -0.379 | -1.15 | -2.01 | -0.0379 | 0.902 | -2.97 | -0.0899 | 0.0696 | -0.0531 |
| GCTGCTC | -0.0251 | -0.00258 | -0.00645 | 0.351 | 0.0936 | 0.313 | 0.128 | 0.0485 | 0.047 | -0.0886 |
| GGTTATC | 0.199 | 0.271 | 0.577 | 1.21 | 0.163 | 1.87 | 0.124 | 0.0986 | 0.225 | 0.323 |
| AAGTAGT | -1.04 | -2.12 | -0.0523 | 0.0668 | -1.49 | 0.396 | -3.67 | 0.0613 | -0.0743 | 0.0142 |
| TGTAAGC | -0.147 | -0.0284 | 0.0107 | -0.0513 | -0.0741 | -0.527 | -0.0103 | -0.118 | -0.0758 | -0.0649 |
| AGCTGGA | 0.147 | 0.134 | 0.393 | 1.47 | 0.158 | 1.46 | 0.153 | 0.198 | 0.0764 | 0.189 |
| GAAAGAA | 0.0485 | 0.137 | 0.27 | 0.301 | -0.066 | 0.343 | 0.141 | 0.00536 | 0.00601 | 0.158 |
| AATCCCC | 0.0246 | -0.0768 | 0.0587 | -0.12 | 0.0524 | 0.172 | -2.01 | -0.0155 | 0.0931 | 0.0798 |
| TTTCCAA | -0.0321 | -0.0154 | 0.231 | 0.261 | -0.0988 | 0.451 | -0.144 | -0.00785 | 0.115 | 0.0851 |
| TATCAGA | 0.0522 | 0.0971 | 0.0145 | -0.352 | 0.076 | -0.862 | 0.219 | 0.0507 | 0.0372 | 0.108 |
| CGTCGAC | 0.0225 | -0.089 | 0.0411 | 0.267 | -0.0553 | -0.143 | 0.075 | -0.0597 | -0.0251 | -0.0598 |
| TTCTTGG | 0.0245 | -0.0207 | 0.0741 | 0.22 | -0.00943 | -0.101 | 0.0116 | -0.0222 | -0.0616 | -0.0322 |
| ACACTGA | 0.00301 | -0.0116 | -0.167 | -0.207 | 0.0337 | -0.541 | 0.106 | -0.0551 | -0.083 | 0.0818 |
| CCTATAC | -0.06 | -0.05 | -0.0143 | -0.745 | -0.00315 | -0.88 | -0.0329 | -0.0245 | -0.0908 | 0.0187 |
| TAATGAT | -3.25 | -0.52 | -4.5 | -2.9 | 0.032 | -2.79 | -4.08 | -3.94 | -1.52 | -3.92 |
| ACCCCCG | -0.305 | -0.113 | -0.825 | 0.377 | -0.0657 | -0.606 | -0.114 | -0.111 | -0.191 | -0.213 |
| CGCTCGA | -0.159 | -0.135 | -0.425 | -0.571 | -0.0317 | -1.03 | -0.182 | -0.122 | -0.186 | -0.189 |
| TAAATGC | 0.0896 | 0.0621 | -0.778 | -1.83 | 0.0346 | -1.21 | 0.143 | 0.0947 | 0.203 | -0.0468 |
| GCGAACA | -0.0161 | 0.128 | 0.0277 | 0.0766 | -0.0494 | 0.649 | 0.00727 | -0.0868 | -0.00451 | 0.0517 |
| GTAGCAA | 0.148 | 0.181 | 0.365 | 0.973 | 0.0508 | 1.69 | 0.136 | 0.264 | 0.143 | 0.156 |
| CGGAGAG | 0.0388 | -0.0955 | -0.211 | 0.0271 | -0.072 | -0.455 | -0.0225 | 0.0195 | -0.136 | -0.0461 |
| TGGTGTC | 0.000456 | -0.165 | 0.213 | 0.462 | -0.0946 | 0.66 | 0.0499 | -0.118 | -0.148 | -0.0958 |
| GGCTGAA | -0.0312 | 0.0266 | 0.406 | 1.24 | 0.106 | 1.56 | -0.00693 | -0.0174 | 0.105 | 0.158 |
| CAAGGTT | -0.00897 | -0.0142 | -0.14 | 0.459 | -0.057 | 1.67 | -0.0861 | 0.0167 | -0.064 | -0.0958 |
| AGTTTGT | -0.3 | -0.118 | -0.191 | -0.41 | -0.0966 | -0.693 | -3.2 | -0.139 | 0.0402 | -0.198 |
| TCTGGCC | 0.0518 | -0.0396 | -0.0167 | 0.397 | -0.0261 | 0.788 | 0.251 | -0.0652 | 0.042 | -0.0379 |
| AAGTCTG | 0.0863 | 0.0501 | 0.342 | 1.44 | 0.0603 | 1.72 | 0.0372 | -0.0601 | -0.0617 | 0.0185 |
| GATACAA | -0.0126 | 0.0432 | 0.256 | 0.648 | -9.76e-05 | 0.719 | 0.117 | -0.0526 | 0.0625 | 0.174 |
| ACCGTTA | -0.188 | -0.0126 | -0.258 | -1.17 | -0.0114 | -0.944 | -0.0854 | -0.0959 | -0.0482 | -0.0365 |
| TATTCTA | -3.17 | -0.993 | -0.0725 | -2.45 | 0.00732 | -0.435 | -2.43 | -0.0753 | 0.0753 | -0.144 |
